# Experimental data from PubChem BioAssay AID485360 (National Center for Advancing Translational Sciences (NCATS), 2010).
# About 1,500 (0.65%) of roughly 230,000 compounds were called active. The inconclusive results got no clear call from the source; some entries with a clear call stand among them for comparison. Calls follow the shape of the dose curve; as a rule, active = well fitted inhibition curve with a large enough effect; inconclusive = small, poorly fitted or top-dose-only effect; inactive = no such curve, though single readings can be large or run the other way. A potency beside an inconclusive call is a rough fit, not a confirmed value.
# Molecular target: Lethal(3)malignant brain tumor-like protein 1 (Homo sapiens) (UniProt Q9Y468)
# Experiment: qHTS Assay for the Inhibitors of L3MBTL1; also: nearly all actives have a fitted effect of over 60% in size
# Details: AlphaScreen L3MBTL1–H3K9me1 peptide binding; series mostly up to 57.1 µM
# In short: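 AlphaScreen proximity signal between nickel-chelate acceptor and streptavidin donor beads (final 10 ug/mL) reports binding of 50 nM L3MBTL1 to 75 nM biotin-H3 K9me1 peptide; complex incubated with compounds 30 min at room temperature; cefsulodin titration as control.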
# Potency is read from the fitted curve at half-maximal effect; tags tell the direction and shape of the fitted curve.
# UniProt Q9Y468, sequence (Q9Y468 whole entry, looked up): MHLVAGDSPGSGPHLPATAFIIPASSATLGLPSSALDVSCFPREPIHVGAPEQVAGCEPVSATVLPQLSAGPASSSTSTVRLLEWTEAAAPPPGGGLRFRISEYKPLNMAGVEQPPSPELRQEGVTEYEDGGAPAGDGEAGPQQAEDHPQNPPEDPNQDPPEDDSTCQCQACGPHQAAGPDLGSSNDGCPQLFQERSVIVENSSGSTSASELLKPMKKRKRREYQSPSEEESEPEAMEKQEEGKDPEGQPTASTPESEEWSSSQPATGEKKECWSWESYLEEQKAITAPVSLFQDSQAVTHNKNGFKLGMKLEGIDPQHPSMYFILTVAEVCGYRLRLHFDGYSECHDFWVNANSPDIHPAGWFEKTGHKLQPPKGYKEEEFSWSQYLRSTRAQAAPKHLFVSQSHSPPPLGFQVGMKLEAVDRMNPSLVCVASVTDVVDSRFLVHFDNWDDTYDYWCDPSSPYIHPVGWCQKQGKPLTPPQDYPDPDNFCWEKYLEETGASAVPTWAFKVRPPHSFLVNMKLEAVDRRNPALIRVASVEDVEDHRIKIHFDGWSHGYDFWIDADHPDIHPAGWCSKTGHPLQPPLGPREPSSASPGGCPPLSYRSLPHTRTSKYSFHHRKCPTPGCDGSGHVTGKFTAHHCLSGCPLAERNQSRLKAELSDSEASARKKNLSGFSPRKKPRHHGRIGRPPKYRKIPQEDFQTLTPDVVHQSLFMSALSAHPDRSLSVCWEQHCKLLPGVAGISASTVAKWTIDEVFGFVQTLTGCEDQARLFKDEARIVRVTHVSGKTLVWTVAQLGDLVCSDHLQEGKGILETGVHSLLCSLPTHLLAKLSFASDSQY
row,SMILES,Potency
1,COc1cc2cc(CCCOC(=O)c3ccc(C#N)cc3)oc(=O)c2cc1OC,inactive
2,COc1ccccc1C1C=C(c2ccc(Cl)cc2)Nc2nc(N3C(=O)CCC3=O)nn21 (configuration not stated),inactive
3,O=[N+]([O-])c1cccc(C2CC(c3ccccc3)=NN2c2ccccc2)c1 (configuration not stated),inactive
4,[O-]/C(=C(\C(=S)Nc1cccc2ccccc12)[n+]1ccccc1)c1ccc(OC(F)F)cc1,"inconclusive: 7.94 µM [inhibitor, full curve, poor fit]"
5,CCNc1ccc(S(=O)(=O)N(C)C)cc1NCC(=O)Nc1ccc(Br)cc1F,"inconclusive: 28.2 µM [inhibitor, partial curve]"
6,CC(C)=CCSc1nnc([C@@H](NC(=O)OC(C)(C)C)C(C)C)o1,inactive
7,Cc1cccc(OCC(=O)Nc2ccc(N3CCN(C(=O)c4ccco4)CC3)cc2)c1,"inconclusive: 35.5 µM [inhibitor, single point]"
8,O=C(CCCCCNC(=S)Nc1ccccc1)C[N+](=O)[O-],inactive
9,Cc1ccc(C)c(NC(=S)/C(=C(\[O-])c2ccc(OC(F)F)cc2)[n+]2ccccc2)c1,inactive
10,Oc1ccc(N=C/C=C/c2ccc(Br)cc2)cc1-c1nc2ccccc2s1,"inconclusive: 35.5 µM [inhibitor, single point]"
11,CC(C)[C@H](NS(=O)(=O)c1cccc(Cl)c1)C(=O)OCC(=O)NC(=O)CN1CCCC1=O,"inconclusive: 28.2 µM [inhibitor, single point]"
12,CC1CC(C)(C)CC2(C1)NC(=O)N(CC(=O)N1CCN(S(=O)(=O)c3cccs3)CC1)C2=O (configuration not stated),inactive
13,CN(C(=O)c1ccc(Cl)cc1)C1CCS(=O)(=O)C1 (configuration not stated),"inconclusive: 0.708 µM [inhibitor, single point]"
14,O=c1cc(-c2ccc(O)cc2)oc2c([C@@H]3O[C@H](CO)[C@@H](O)[C@H](O)[C@H]3O)c(O)c([C@@H]3O[C@H](CO)[C@@H](O)[C@H](O)[C@H]3O)c(O)c12,inactive
15,CCN(CC)c1ccc2cc(S(=O)(=O)c3ccc(Cl)cc3)c(=O)oc2c1,inactive
16,NC(=O)C1CCN(CCC(=O)Nc2ccc(Br)cc2)CC1,"inconclusive: 0.631 µM [inhibitor, full curve, poor fit]"
17,CC(=O)c1ccc2noc(-c3cccc(C)c3)c2c1,inactive
18,O=C(COC(=O)c1ccc(O)cc1)Nc1ccc2c(c1)OCO2,inactive
19,CC(=O)Nc1ccc(C2=NNC(=NCC3CCCO3)SC2)cc1 (configuration not stated),inactive
20,COc1ccc(C(=O)Cn2c(NCCCO)nc3ccccc32)cc1OC,"inconclusive: 6.31 µM [inhibitor, single point]"
21,CCOc1ccc(-n2c(=S)sc3c(=O)[nH]c(SCC(=O)NCc4ccco4)nc32)cc1,"inconclusive: 39.8 µM [inhibitor, single point]"
22,O=C(CSc1nc2ccccc2s1)NNC(=S)Nc1ccc(Br)cc1,inactive
23,COc1ccc(Nc2nc(-c3sc(C)nc3C)cs2)c(OC)c1,"inconclusive: 3.16 µM [inhibitor, full curve, poor fit]"
24,O=C(O)c1ccccc1CSc1ncccc1C(=O)O,inactive

row,SMILES,Potency
1,O=[N+]([O-])c1ccccc1/C=N\N1CCN(c2ccccc2)CC1,"inconclusive: 39.8 µM [inhibitor, single point]"
2,N#C/C(=C\c1ccccc1[N+](=O)[O-])C(=O)NC1CCCCC1,"inconclusive: 39.8 µM [inhibitor, partial curve, poor fit]"
3,Cc1cccc(-c2cc(C(=O)NCc3ccccn3)c3ccccc3n2)c1,inactive
4,CCn1c(/C=C2/C(=O)N(C)c3ccccc32)nc2ccccc2c1=O,"inconclusive: 10 µM [inhibitor, partial curve]"
5,CCCCn1c(=O)nc2n(-c3ccc(OC)cc3)c3ccccc3cc-2c1=O,"inconclusive: 0.1 µM [inhibitor, full curve, poor fit]"
6,CC1=NN(C(N)=S)C(=O)C1N=Nc1ccccc1O (configuration not stated),"inconclusive: 31.6 µM [inhibitor, single point]"
7,O=C(/C(C=Nc1ccc(Br)cc1)=C(/O)c1ccco1)C(F)(F)F,inactive
8,CN1C/C(=C/c2cccnc2)C(=O)/C(=C/c2cccnc2)C1,inactive
9,O=C(CCCn1c(SCC(=O)c2ccc(O)c(O)c2)nc2ccccc2c1=O)NCC1CCCO1 (configuration not stated),"inconclusive: 20 µM [inhibitor, partial curve]"
10,CCCC[C@@H]1C=C(C(=O)O)[C@H](c2ccc(Br)cc2)N1S(=O)(=O)c1ccc(C)cc1,inactive
11,Cc1ccc(C(=O)c2c(C)oc3c2C(=O)C(=O)c2ccccc2-3)cc1,"inconclusive: 35.5 µM [inhibitor, partial curve]"
12,Cc1oc(-c2ccccc2F)nc1CS(=O)(=O)CC(=O)N1CCOCC1,inactive
13,CC(C)C(=O)NC(C)C(c1cccs1)N1CCN(c2ccccc2)CC1 (configuration not stated),"inconclusive: 28.2 µM [inhibitor, single point]"
14,C=CCn1c(SCC(=O)N2CCOCC2)nc2scc(-c3ccco3)c2c1=O,"inconclusive: 31.6 µM [inhibitor, single point]"
15,COc1ccc(C(=O)CSc2nnc(C3CCCCC3)n2N)c(OC)c1,"inconclusive: 25.1 µM [inhibitor, single point]"
16,Cc1[nH]c2ccccc2c1C(c1ccncc1)N1CCCCC1 (configuration not stated),inactive
17,Cc1ccc(C(=O)c2coc3cc([N+](=O)[O-])c(O)c([N+](=O)[O-])c23)cc1,"inconclusive: 39.8 µM [inhibitor, single point]"
18,Clc1ccc(-c2ccc(CNCc3ccccn3)o2)cc1,"inconclusive: 28.2 µM [inhibitor, partial curve]"
19,O=[N+]([O-])c1ccc2nc(/C=C/c3ccc(Cl)cc3)[nH]c2c1,inactive
20,Cc1nnc(NN)n(N)c1=O,inactive
21,COc1cccc(-c2nn3c(-c4ccccn4)nnc3s2)c1,"inconclusive: 20 µM [inhibitor, single point]"
22,Cc1cc(C)c2c(c1)-c1cc(C)nn1C(c1ccc3c(c1)OCO3)N2 (configuration not stated),"inconclusive: 0.794 µM [inhibitor, single point]"
23,Cc1ccccc1-c1nc2ccccc2c(=O)n1/N=C/c1ccccc1[N+](=O)[O-],"inconclusive: 39.8 µM [inhibitor, single point]"
